# Experimental data: PubChem BioAssay AID1745853 (National Center for Advancing Translational Sciences (NCATS), 2022)
# This is one part of the list. Shown are side measurements of this screen, not its main read-out; they come without a call.
# What was measured:
# Experiment in all cases: Primary Screen for Target Class Profiling of Small Molecule Inhibitors of Methyltransferases
# [1] = target: Glycine N-methyltransferase (Homo sapiens) (UniProt Q14749); details: purified enzyme, MTase-Glo SAH luminescence; measured here: GNMT inhibition; at 40 µM; stronger effect = lower value
# Outline: (§1)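 Each enzyme was assayed with SAM and its substrate. SAH formation detected by MTase-Glo luminescence; single-point 40 uM screen[…].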
# [2] = target: Guanidinoacetate N-methyltransferase (Homo sapiens) (UniProt Q14353); details: purified enzyme, MTase-Glo SAH luminescence; measured here: GAMT inhibition; at 40 µM; stronger effect = lower value
# Outline: as §1
# [3] = target: Histamine N-methyltransferase (Homo sapiens) (UniProt P50135); details: purified enzyme, MTase-Glo SAH luminescence; measured here: HNMT inhibition; at 40 µM; stronger effect = lower value
# Outline: as §1
# [4] = target: Nicotinamide N-methyltransferase (Homo sapiens) (UniProt P40261); details: purified enzyme, MTase-Glo SAH luminescence; measured here: NNMT inhibition; at 40 µM; stronger effect = lower value
# Outline: as §1
# [5] = target: Phenylethanolamine N-methyltransferase (Homo sapiens) (UniProt P11086); details: purified enzyme, MTase-Glo SAH luminescence; measured here: PNMT inhibition; at 40 µM; stronger effect = lower value
# Outline: as §1
# On the % scale 0 is the no-effect control and ±100 the full control effect.
Compound,"activity change, negative = inhibition [1]","activity change, negative = inhibition [2]","activity change, negative = inhibition [3]","activity change, negative = inhibition [4]","activity change, negative = inhibition [5]"
CC(C)NC(=O)N1CCC(Oc2ccccc2)C1 (stereo not given),-2.47%,-6.96%,-8.45%,-18.9%,-3.78%
COc1ccc(CNC(=O)CCc2nnc3n(Cc4ccc(F)cc4)c(=O)c4ccccc4n23)cc1,-10.3%,3.03%,-3.99%,-0.199%,-8.75%
COCCNC(=O)Cn1c(=O)oc2cc(S(=O)(=O)N3CC(C)CC(C)C3)ccc21 (stereo not given),0.718%,0%,4.28%,15.6%,1.51%
C=Cc1ccc(Cn2nc3n(CCC(C)C)c(=O)c4ccc(C(=O)NC(C)CC)cc4n3c2=O)cc1 (stereo not given),-5.4%,4.91%,-0.078%,-6.3%,1.39%
CCOC(=O)c1cc2n(n1)CC(C)(C(=O)NC1CCCCCC1)N(c1cccc(SC)c1)C2=O (stereo not given),-0.633%,0%,-4.67%,-4.38%,2.79%
NC1CCc2n[nH]c(=O)n2CC1 (stereo not given),-3.7%,-2.25%,-1.49%,-2.63%,6.28%
CN(C)C(=O)N1CCC2(CC1)CC(c1cccc(C(F)(F)F)c1)=NO2,-5.04%,0.91%,-1.12%,-2.13%,-7.51%
COc1c2c(c(C)c3c1C(=O)OC3)OC1(C)CC(O)C34OC(OC)(CCC3(C)C1C2)OC4(C)CO (stereo not given),-3.27%,3.53%,1.44%,-18.1%,1.42%
COc1ccccc1CCC(=O)N1CCCC(c2[nH]ccc2C(N)=O)C1 (stereo not given),-0.198%,2.93%,0.758%,-6.33%,11.8%
c1ccc(CC2=NOC3(CCCN(Cc4ccns4)C3)C2)cc1 (stereo not given),-7.35%,-15.3%,-7.78%,-11%,-3.49%
C=C(C)C1CCC2(C(=O)OC3OC(COC4OC(CO)C(O)C(O)C4O)C(OC4OC(C)C(O)C(O)C4O)C(O)C3O)CCC3(C(=O)O)C(CCC4C5(C)CCC(=O)C(C)(C)C5CCC43C)C12 (stereo not given),3.26%,5.29%,2.5%,-9.27%,5.45%
C/C1=C\CC[C@]2(C)O[C@H]2C(=O)c2c(C)coc2C1,-8.52%,-9.78%,4.58%,-19.8%,-0.795%
COc1cc(Nc2ccc([N+](=O)[O-])cc2C(=O)O)cc2ccccc12,-20%,-3.38%,6.13%,-37.3%,-4.27%
CC1CCCCC1NC(=O)C1(C)Cn2c(cc3sccc32)C(=O)N1C1CCCCCC1 (stereo not given),-1.54%,4.66%,-2.24%,-6.29%,-5.9%
Cc1cc(C)cc(N2CCC(NS(=O)(=O)c3cn(C)c(C)n3)C2=O)c1 (stereo not given),-7.95%,-13.3%,-8.16%,-16.1%,-16.9%
